# This is one part of the list.
# What was measured:
# Assay in all cases: glycan array binding signal (z-score within array); higher = stronger binding
# Conditions in all cases: glycan notation: IUPAC condensed, linker removed
# [1] = molecular target: GlcNAc(a1-4)Gal(b1-3)GlcNAc
# Summary of the method: (§1)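 The Consortium for Functional Glycomics database supplied 3228 glycan arrays, of which those lacking an available protein sequence were dropped. The binding signal, a within-array Z-score, was averaged across arrays of the same protein sequence and across linkers. Negative scores can be read as non-binding.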
# [2] = molecular target: GlcNAc(a1-4)Gal(b1-4)GalNAc
# Summary of the method: as §1
# [3] = molecular target: GlcNAc(a1-4)Gal(b1-4)GlcNAc
# Summary of the method: as §1
# [4] = molecular target: GlcNAc(a1-4)Gal(b1-4)GlcNAc(b1-3)Gal(b1-4)Glc
# Summary of the method: as §1
# [5] = molecular target: GlcNAc(a1-4)Gal(b1-4)GlcNAc(b1-3)Gal(b1-4)GlcNAc
# Summary of the method: as §1
# [6] = molecular target: GlcNAc(a1-4)Gal(b1-4)GlcNAc(b1-3)Gal(b1-4)GlcNAc(b1-3)Gal(b1-4)GlcNAc
# Summary of the method: as §1
# [7] = molecular target: GlcNAc(a1-4)Gal(b1-4)GlcNAc(b1-3)Gal(b1-4)[Fuc(a1-3)]GlcNAc(b1-3)Gal(b1-4)[Fuc(a1-3)]GlcNAc
# Summary of the method: as §1
# [8] = molecular target: GlcNAc(a1-6)Gal(b1-4)GlcNAc
# Summary of the method: as §1
# [9] = molecular target: GlcNAc(b1-2)Gal(b1-3)GalNAc
# Summary of the method: as §1
# [10] = molecular target: GlcNAc(b1-2)Man(a1-3)[GlcNAc(b1-2)Man(a1-6)]Man(b1-4)GlcNAc(b1-4)GlcNAc
# Summary of the method: as §1
# [11] = molecular target: GlcNAc(b1-2)Man(a1-3)[GlcNAc(b1-2)Man(a1-6)]Man(b1-4)GlcNAc(b1-4)[Fuc(a1-6)]GlcNAc
# Summary of the method: as §1
# [12] = molecular target: GlcNAc(b1-2)Man(a1-3)[GlcNAc(b1-4)][GlcNAc(b1-2)Man(a1-6)]Man(b1-4)GlcNAc(b1-4)GlcNAc
# Summary of the method: as §1
# [13] = molecular target: GlcNAc(b1-2)Man(a1-3)[GlcNAc(b1-4)][GlcNAc(b1-2)Man(a1-6)]Man(b1-4)GlcNAc(b1-4)[Fuc(a1-6)]GlcNAc
# Summary of the method: as §1
# [14] = molecular target: GlcNAc(b1-2)[GlcNAc(b1-4)]Man(a1-3)[GlcNAc(b1-2)Man(a1-6)]Man(b1-4)GlcNAc(b1-4)GlcNAc
# Summary of the method: as §1
# [15] = molecular target: GlcNAc(b1-2)[GlcNAc(b1-4)]Man(a1-3)[GlcNAc(b1-4)][GlcNAc(b1-2)Man(a1-6)]Man(b1-4)GlcNAc(b1-4)GlcNAc
# Summary of the method: as §1
# [16] = molecular target: GlcNAc(b1-2)[GlcNAc(b1-4)]Man(a1-3)[GlcNAc(b1-4)][GlcNAc(b1-2)[GlcNAc(b1-6)]Man(a1-6)]Man(b1-4)GlcNAc(b1-4)GlcNAc
# Summary of the method: as §1
# [17] = molecular target: GlcNAc(b1-2)[GlcNAc(b1-4)]Man(a1-3)[GlcNAc(b1-4)][GlcNAc(b1-2)[GlcNAc(b1-6)]Man(a1-6)]Man(b1-4)GlcNAc(b1-4)[Fuc(a1-6)]GlcNAc
# Summary of the method: as §1
# [18] = molecular target: GlcNAc(b1-2)[GlcNAc(b1-6)]Man(a1-6)[GlcNAc(b1-2)Man(a1-3)]Man(b1-4)GlcNAc(b1-4)GlcNAc
# Summary of the method: as §1
# [19] = molecular target: GlcNAc(b1-2)[GlcNAc(b1-6)]Man(a1-6)[GlcNAc(b1-2)Man(a1-3)]Man(b1-4)GlcNAc(b1-4)[Fuc(a1-6)]GlcNAc
# Summary of the method: as §1
# [20] = molecular target: GlcNAc(b1-2)[GlcNAc(b1-6)]Man(a1-6)[GlcNAc(b1-4)][GlcNAc(b1-2)Man(a1-3)]Man(b1-4)GlcNAc(b1-4)GlcNAc
# Summary of the method: as §1
# GlcNAc(b1-3)Fuc = molecular target: GlcNAc(b1-3)Fuc
# Summary of the method: as §1
# GlcNAc(b1-3)Gal = molecular target: GlcNAc(b1-3)Gal
# Summary of the method: as §1
# [21] = molecular target: GlcNAc(b1-3)Gal(b1-3)GalNAc
# Summary of the method: as §1
# GlcNAc(b1-3)Gal(b1-4)Glc = molecular target: GlcNAc(b1-3)Gal(b1-4)Glc
# Summary of the method: as §1
# [22] = molecular target: GlcNAc(b1-3)Gal(b1-4)GlcNAc
# Summary of the method: as §1
# [23] = molecular target: GlcNAc(b1-3)Gal(b1-4)GlcNAc(b1-2)Man(a1-3)[GlcNAc(b1-3)Gal(b1-4)GlcNAc(b1-2)Man(a1-6)]Man(b1-4)GlcNAc(b1-4)GlcNAc
# Summary of the method: as §1
# [24] = molecular target: GlcNAc(b1-3)Gal(b1-4)GlcNAc(b1-2)Man(a1-3)[GlcNAc(b1-3)Gal(b1-4)GlcNAc(b1-2)Man(a1-6)]Man(b1-4)GlcNAc(b1-4)[Fuc(a1-6)]GlcNAc
# Summary of the method: as §1
# [25] = molecular target: GlcNAc(b1-3)Gal(b1-4)GlcNAc(b1-2)[GlcNAc(b1-3)Gal(b1-4)GlcNAc(b1-6)]Man(a1-6)[GlcNAc(b1-3)Gal(b1-4)GlcNAc(b1-2)Man(a1-3)]Man(b1-4)GlcNAc(b1-4)GlcNAc
# Summary of the method: as §1
# [26] = molecular target: GlcNAc(b1-3)Gal(b1-4)GlcNAc(b1-3)Gal(b1-4)GlcNAc
# Summary of the method: as §1
# [27] = molecular target: GlcNAc(b1-3)Gal(b1-4)GlcNAc(b1-3)Gal(b1-4)GlcNAc(b1-2)Man(a1-3)[GlcNAc(b1-3)Gal(b1-4)GlcNAc(b1-3)Gal(b1-4)GlcNAc(b1-2)Man(a1-6)]Man(b1-4)GlcNAc(b1-4)GlcNAc
# Summary of the method: as §1
# [28] = molecular target: GlcNAc(b1-3)Gal(b1-4)GlcNAc(b1-3)Gal(b1-4)GlcNAc(b1-2)Man(a1-3)[GlcNAc(b1-3)Gal(b1-4)GlcNAc(b1-3)Gal(b1-4)GlcNAc(b1-2)Man(a1-6)]Man(b1-4)GlcNAc(b1-4)[Fuc(a1-6)]GlcNAc
# Summary of the method: as §1
# [29] = molecular target: GlcNAc(b1-3)Gal(b1-4)GlcNAc(b1-3)Gal(b1-4)GlcNAc(b1-2)[GlcNAc(b1-3)Gal(b1-4)GlcNAc(b1-3)Gal(b1-4)GlcNAc(b1-6)]Man(a1-6)[GlcNAc(b1-3)Gal(b1-4)GlcNAc(b1-3)Gal(b1-4)GlcNAc(b1-2)Man(a1-3)]Man(b1-4)GlcNAc(b1-4)[Fuc(a1-6)]GlcNAc
# Summary of the method: as §1
# [30] = molecular target: GlcNAc(b1-3)Gal(b1-4)GlcNAc(b1-3)Gal(b1-4)GlcNAc(b1-3)Gal(b1-4)GlcNAc(b1-2)Man(a1-3)[GlcNAc(b1-3)Gal(b1-4)GlcNAc(b1-3)Gal(b1-4)GlcNAc(b1-3)Gal(b1-4)GlcNAc(b1-2)Man(a1-6)]Man(b1-4)GlcNAc(b1-4)GlcNAc
# Summary of the method: as §1
# [31] = molecular target: GlcNAc(b1-3)Gal(b1-4)GlcNAc(b1-3)Gal(b1-4)GlcNAc(b1-3)Gal(b1-4)GlcNAc(b1-2)Man(a1-3)[GlcNAc(b1-3)Gal(b1-4)GlcNAc(b1-3)Gal(b1-4)GlcNAc(b1-3)Gal(b1-4)GlcNAc(b1-2)Man(a1-6)]Man(b1-4)GlcNAc(b1-4)[Fuc(a1-6)]GlcNAc
# Summary of the method: as §1
# [32] = molecular target: GlcNAc(b1-3)Gal(b1-4)GlcNAc(b1-3)Gal(b1-4)GlcNAc(b1-3)Gal(b1-4)GlcNAc(b1-2)[GlcNAc(b1-3)Gal(b1-4)GlcNAc(b1-3)Gal(b1-4)GlcNAc(b1-3)Gal(b1-4)GlcNAc(b1-6)]Man(a1-6)[GlcNAc(b1-3)Gal(b1-4)GlcNAc(b1-3)Gal(b1-4)GlcNAc(b1-3)Gal(b1-4)GlcNAc(b1-2)Man(a1-3)]Man(b1-4)GlcNAc(b1-4)[Fuc(a1-6)]GlcNAc
# Summary of the method: as §1
# [33] = molecular target: GlcNAc(b1-3)Gal(b1-4)GlcNAc(b1-3)Gal(b1-4)GlcNAc(b1-3)Gal(b1-4)GlcNAc(b1-3)Gal(b1-4)GlcNAc(b1-2)Man(a1-3)[GlcNAc(b1-3)Gal(b1-4)GlcNAc(b1-3)Gal(b1-4)GlcNAc(b1-3)Gal(b1-4)GlcNAc(b1-3)Gal(b1-4)GlcNAc(b1-2)Man(a1-6)]Man(b1-4)GlcNAc(b1-4)GlcNAc
# Summary of the method: as §1
# [34] = molecular target: GlcNAc(b1-3)Gal(b1-4)GlcNAc(b1-3)Gal(b1-4)GlcNAc(b1-3)Gal(b1-4)GlcNAc(b1-3)Gal(b1-4)GlcNAc(b1-2)Man(a1-3)[GlcNAc(b1-3)Gal(b1-4)GlcNAc(b1-3)Gal(b1-4)GlcNAc(b1-3)Gal(b1-4)GlcNAc(b1-3)Gal(b1-4)GlcNAc(b1-2)Man(a1-6)]Man(b1-4)GlcNAc(b1-4)[Fuc(a1-6)]GlcNAc
# Summary of the method: as §1
# [35] = molecular target: GlcNAc(b1-3)Gal(b1-4)GlcNAc(b1-3)Gal(b1-4)GlcNAc(b1-3)Gal(b1-4)GlcNAc(b1-3)Gal(b1-4)GlcNAc(b1-2)[GlcNAc(b1-3)Gal(b1-4)GlcNAc(b1-3)Gal(b1-4)GlcNAc(b1-3)Gal(b1-4)GlcNAc(b1-3)Gal(b1-4)GlcNAc(b1-6)]Man(a1-6)[GlcNAc(b1-3)Gal(b1-4)GlcNAc(b1-3)Gal(b1-4)GlcNAc(b1-3)Gal(b1-4)GlcNAc(b1-3)Gal(b1-4)GlcNAc(b1-2)Man(a1-3)]Man(b1-4)GlcNAc(b1-4)[Fuc(a1-6)]GlcNAc
# Summary of the method: as §1
binder,measurement,setting,value
GS7807E-bfa-538-23-538 (Bacteroides fragilis) (protein) TDSFESFNTNEAGFDNDSKKQDFNYYGIPLGIIQQGIYFNYDWGSGKNWPFQTMQNLGADLFSGYVHDFNPFNEGKNNSTYYMMDGWNGSTWDNTYGYIMPEVQKSETINEKDNIGFFGITKILKVELMHRLSDLYGPIVYTQFGSKTGSTPDTQQEAYKAFFNDLDTGIAKIREYQKANPDIESFAKFDILMPQGKRTFSEWIRFANSLRLRLAVRIAMADSKLAVAEAQKALTDEEGLLEGNDEVVAVSTSSGYTNPFGEINKAWGEVFMNANMESLLVGYEDPRMEKYFDKATGSDATSLIDYKGTYKGIRQGTGFSHKNYNGHSKSTITQQTDAVLMTPAEVWFLRAEAALRGWSSESVKDCYEKGVKASFAQWGAAGAEAYLESDRKPSDYVDAFKAANNVKAVNTLTPKWDDAAGNEDKLGRIITQKWLAMFPEGGEAWAEQRRTGYPRLFPVLVNQSEGTVDTNLGPRRLNFFVGIKTTNPEQYTQLVNALGGIDNCGTRLWWDTGRNF,glycan array binding signal (z-score),[1],-0.658
same,glycan array binding signal (z-score),[2],-0.527
same,glycan array binding signal (z-score),[3],-0.444
same,glycan array binding signal (z-score),[4],-0.595
same,glycan array binding signal (z-score),[5],-0.642
same,glycan array binding signal (z-score),[6],-0.65
same,glycan array binding signal (z-score),[7],-0.514
same,glycan array binding signal (z-score),[8],1.61
same,glycan array binding signal (z-score),[9],-0.677
same,glycan array binding signal (z-score),[10],-0.653
same,glycan array binding signal (z-score),[11],-0.516
same,glycan array binding signal (z-score),[12],-0.639
same,glycan array binding signal (z-score),[13],-0.694
same,glycan array binding signal (z-score),[14],-0.599
same,glycan array binding signal (z-score),[15],-0.711
same,glycan array binding signal (z-score),[16],-0.646
same,glycan array binding signal (z-score),[17],-0.629
same,glycan array binding signal (z-score),[18],-0.591
same,glycan array binding signal (z-score),[19],-0.662
same,glycan array binding signal (z-score),[20],-0.699
same,glycan array binding signal (z-score),GlcNAc(b1-3)Fuc,-0.69
same,glycan array binding signal (z-score),GlcNAc(b1-3)Gal,-0.675
same,glycan array binding signal (z-score),[21],-0.576
same,glycan array binding signal (z-score),GlcNAc(b1-3)Gal(b1-4)Glc,-0.702
same,glycan array binding signal (z-score),[22],-0.672
same,glycan array binding signal (z-score),[23],-0.233
same,glycan array binding signal (z-score),[24],-0.215
same,glycan array binding signal (z-score),[25],-0.511
same,glycan array binding signal (z-score),[26],-0.578
same,glycan array binding signal (z-score),[27],-0.536
same,glycan array binding signal (z-score),[28],0.135
same,glycan array binding signal (z-score),[29],1.92
same,glycan array binding signal (z-score),[30],0.228
same,glycan array binding signal (z-score),[31],-0.408
same,glycan array binding signal (z-score),[32],-0.457
same,glycan array binding signal (z-score),[33],0.374
same,glycan array binding signal (z-score),[34],-0.491
same,glycan array binding signal (z-score),[35],0.103
